Structures are written as SMILES. The list shows a part of the results.

In one assay the test system is HSkMC. In words: cytotoxicity call (relative viability < 0.9). To be noted: 10 µM.
The next assay has as its system HepG2. As to the kind of experiment: cytotoxicity call (relative viability < 0.9). The settings on record: 10 µM.
The next assay deals with S. aureus RN4220. In words: growth inhibition call (relative growth <= 0.2). To be noted: 50 µM.

`C[C@H](CO)N1C[C@H](C)[C@H](CN(C)Cc2ccc(C(F)(F)F)cc2)Oc2ccc(NS(C)(=O)=O)cc2C1=O`: the cytotoxicity call in the assay with HSkMC and in the assay with HepG2 was “inactive” in each case. Further, in the assay with S. aureus RN4220, the growth inhibition call was “inactive”.
Turning to `O=C(O)CCN1C(=O)[C@@H]2[C@@H](C1=O)[C@@H]1C=C[C@@H]2C1`, the cytotoxicity call in the assay with HSkMC and with HepG2 was “inactive” throughout. Besides, in the assay on S. aureus RN4220, the growth inhibition call is “inactive”.
Consider `C[C@H](CO)N1C[C@H](C)[C@@H](CN(C)C(=O)c2ccccc2F)Oc2cc(C#CCN(C)C)ccc2S1(=O)=O`, for which the cytotoxicity call with HSkMC and in the assay on HepG2 was “inactive” each time. For the same molecule, the growth inhibition call in the assay on S. aureus RN4220 is “inactive”.
For the molecule `C[C@H](CO)N1C[C@H](C)[C@H](CN(C)C(=O)NC2CCCCC2)OCCCC[C@H](C)Oc2ccc(NC(=O)C3CCCCC3)cc2C1=O`, the cytotoxicity call in the assay on HSkMC and in the assay on HepG2 was “inactive” throughout. For the same molecule, the growth inhibition call in the assay on S. aureus RN4220 was “inactive”.
Take `C[C@@H]1CN([C@H](C)CO)C(=O)c2cc(NC(=O)Cn3cnnn3)ccc2O[C@@H]1CN(C)Cc1ccc(C(F)(F)F)cc1`: the cytotoxicity call in the assay with HSkMC and with HepG2 was “inactive” in each case. In addition, the growth inhibition call with S. aureus RN4220 is “inactive”.
As to `CN1C(=O)c2cc(NS(=O)(=O)c3ccc(F)cc3)ccc2OC[C@H]2O[C@@H](CC(=O)NCC(F)(F)F)CC[C@@H]21`, the cytotoxicity call with HSkMC and with HepG2 was “inactive” in each case. Further, the growth inhibition call with S. aureus RN4220 is “inactive”.
On to `COc1ccc2c3c([nH]c2c1)[C@H](CO)N(C[C@]13CN(C1)C(=O)Cc1cccnc1)S(=O)(=O)c1ccc(cc1)C`, for which the cytotoxicity call with HSkMC and in the assay with HepG2 was “inactive” throughout. Further, the growth inhibition call with S. aureus RN4220 is “inactive”.
On to `C[C@@H]1CN([C@@H](C)CO)C(=O)Cc2cc(NC(=O)Nc3ccccc3)ccc2O[C@H]1CN(C)C(=O)Nc1cccc2ccccc12`, for which the cytotoxicity call in the assay with HSkMC and in the assay on HepG2 was “inactive” throughout. In addition, the growth inhibition call with S. aureus RN4220 was “inactive”.
As to `CC(=O)OC1CC2C(C)(C)C(=O)CCC2(C)C2CCC3(C)C(c4ccoc4)OC(=O)C4OC43C12C` (stereo unspecified), the cytotoxicity call with HSkMC and with HepG2 was “inactive” each time. Further, the growth inhibition call in the assay on S. aureus RN4220 was “inactive”.
Regarding `CCCN1C[C@H](C(=O)O)CCC1=O`, the cytotoxicity call in the assay on HSkMC and in the assay on HepG2 was “inactive” in each case. The growth inhibition call in the assay with S. aureus RN4220 was “inactive”.
Consider `C[C@@H]1CCCCO[C@H](CN(C)Cc2ccc(C(F)(F)F)cc2)[C@@H](C)CN([C@@H](C)CO)C(=O)c2cc(NS(=O)(=O)c3ccc(Cl)cc3)ccc2O1`, for which the cytotoxicity call in the assay with HSkMC and in the assay with HepG2 was “active” in each case. In addition, the growth inhibition call in the assay on S. aureus RN4220 is “inactive”.
On to `COc1ccc2c(c1)[C@@]1(CC(=O)N(Cc3ccccc3)C1=O)C(=O)N2CCCn1c(=O)n(C)c2ccccc21`, for which the cytotoxicity call in the assay on HSkMC and with HepG2 was “inactive” each time. Moreover, in the assay on S. aureus RN4220, the growth inhibition call is “inactive”.
On to `C[C@H](CO)N1C[C@H](C)[C@H](CN(C)S(=O)(=O)c2cn(C)cn2)OCCCC[C@H](C)Oc2ccc(NS(=O)(=O)c3cccs3)cc2C1=O`, for which the cytotoxicity call with HSkMC and with HepG2 was “inactive” each time. In the assay on S. aureus RN4220, the growth inhibition call was “inactive”.
Turning to `COc1ccc(NC(=O)Nc2ccc3c(c2)C(=O)N([C@@H](C)CO)C[C@H](C)[C@@H](CN(C)Cc2ccc4c(c2)OCO4)OCCCC[C@H](C)O3)cc1`, the cytotoxicity call with HSkMC and in the assay with HepG2 was “inactive” each time. In the assay on S. aureus RN4220, the growth inhibition call is “inactive”.
With `CCC1OC(=O)C(C)C(OC2CC(C)(OC)C(O)C(C)O2)C(C)C(OC2OC(C)CC(N(C)C)C2O)C(C)(OC)CC(C)C(=O)C(C)C(O)C1(C)O` (stereo unspecified), the cytotoxicity call with HSkMC and in the assay on HepG2 was “inactive” each time. Also, the growth inhibition call with S. aureus RN4220 was “active”.
For `C[C@@H]1CCCCO[C@@H](CN(C)S(=O)(=O)c2ccc(F)cc2)[C@H](C)CN([C@H](C)CO)C(=O)c2cc(NC(=O)Nc3ccc(C(F)(F)F)cc3)ccc2O1`, the cytotoxicity call in the assay with HSkMC and in the assay with HepG2 was “inactive” throughout. Besides, the growth inhibition call in the assay on S. aureus RN4220 was “inactive”.
Take `CCOc1nc(N)cc(N)c1C#N`: the cytotoxicity call with HSkMC and in the assay with HepG2 was “inactive” in each case. Also, the growth inhibition call in the assay on S. aureus RN4220 is “inactive”.
For `C[C@@H]1CN([C@H](C)CO)C(=O)c2cc(NC(=O)CCCCCC(=O)Nc3ccccc3N)ccc2O[C@@H](C)CCCCO[C@H]1CN(C)Cc1ccc(Cl)c(Cl)c1`, the cytotoxicity call in the assay with HSkMC and in the assay on HepG2 was “inactive” in each case. Besides, the growth inhibition call in the assay with S. aureus RN4220 was “inactive”.
In the case of `C[C@@H]1CCCCO[C@H](CN(C)C(=O)C2CCCCC2)[C@@H](C)CN([C@@H](C)CO)C(=O)c2cc(NC(=O)Nc3ccc(C(F)(F)F)cc3)ccc2O1`, the cytotoxicity call in the assay on HSkMC and in the assay on HepG2 was “inactive” in each case. For the same molecule, the growth inhibition call in the assay on S. aureus RN4220 is “inactive”.
For the molecule `C[C@@H]1CN([C@H](C)CO)C(=O)c2cc(NS(C)(=O)=O)ccc2O[C@@H]1CN(C)S(=O)(=O)c1ccc(F)cc1`, the cytotoxicity call in the assay with HSkMC and in the assay on HepG2 was “inactive” each time. In addition, in the assay with S. aureus RN4220, the growth inhibition call was “inactive”.
Regarding `C[C@@H]1CCCCO[C@@H](CN(C)C(=O)Nc2ccc(C(F)(F)F)cc2)[C@@H](C)CN([C@@H](C)CO)C(=O)c2cc(NC(=O)C3CCCCC3)ccc2O1`, the cytotoxicity call in the assay with HSkMC and in the assay with HepG2 was “inactive” each time. For the same molecule, the growth inhibition call in the assay with S. aureus RN4220 is “inactive”.
Turning to `C[C@@H]1CN([C@@H](C)CO)C(=O)c2cccc(NC(=O)C3CCOCC3)c2O[C@@H]1CN(C)C(=O)Nc1ccc2c(c1)OCO2`, the cytotoxicity call in the assay on HSkMC and in the assay with HepG2 was “inactive” throughout. Also, in the assay with S. aureus RN4220, the growth inhibition call is “inactive”.
As to `O=c1cc(-c2ccccc2)ss1`, the cytotoxicity call in the assay on HSkMC and with HepG2 was “inactive” in each case. In the assay with S. aureus RN4220, the growth inhibition call is “inactive”.
As to `C[C@@H]1CN([C@H](C)CO)C(=O)c2c(c3ccccc3n2C)-c2ccccc2CO[C@@H]1CN(C)Cc1cccc(F)c1`, the cytotoxicity call in the assay on HSkMC (human skeletal muscle cells) and in the assay with HepG2 was “inactive” each time. Besides, the growth inhibition call in the assay with S. aureus RN4220 was “inactive”.
Consider `C[C@H](CO)N1C[C@H](C)[C@@H](CN(C)Cc2ccc(C(=O)O)cc2)Oc2c(NC(=O)c3cnccn3)cccc2C1=O`, for which the cytotoxicity call in the assay with HSkMC and with HepG2 was “inactive” in each case. For the same molecule, the growth inhibition call in the assay with S. aureus RN4220 was “inactive”.
For the molecule `COCC(=O)N(C)C[C@@H]1Oc2cc(C#CCN(C)C)ccc2S(=O)(=O)N([C@@H](C)CO)C[C@@H]1C`, the cytotoxicity call with HSkMC and with HepG2 was “inactive” in each case. In addition, the growth inhibition call in the assay on S. aureus RN4220 was “inactive”.
Turning to `Cc1ccc(S(=O)(=O)N(C)C[C@@H]2OCCCC[C@@H](C)Oc3ccc(NS(C)(=O)=O)cc3C(=O)N([C@H](C)CO)C[C@H]2C)cc1`, the cytotoxicity call with HSkMC and in the assay on HepG2 was “inactive” each time. Further, in the assay on S. aureus RN4220, the growth inhibition call is “inactive”.

The values are drawn from the antibiotic and cytotoxicity screens of Wong et al. (2023).
